# Out of some 350,000 compounds screened, about 260 (0.074%) were called active. Inconclusive means that the source gave no clear call. Such entries were picked first, then a sample of the others. Calls follow the shape of the dose curve; as a rule, active = well fitted inhibition curve with a large enough effect; inconclusive = small, poorly fitted or top-dose-only effect; inactive = no such curve, though single readings can be large or run the other way. Potencies of inconclusive entries are doubtful fits and often do not repeat.
# Biological target: Ferritin light chain (Equus caballus) (UniProt P02791)
# Assay: qHTS Assay for Identification of Novel General Anesthetics; also: nearly all actives have a fitted effect of over 20% in size
# Settings: apoferritin/1-aminoanthracene competitive binding, fluorescence; activity change, negative = displacement: at 77.5 µM (top of the series)
# How it was run: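 10 uM apoferritin + 50% sat. 1-AMA, PBS; cpd 10 min RT; Ex380/Em535 endpoint; normalized to free probe vs complex; 4-param Hill fit; propofol titration as pos. ctrl.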
# % is scaled to controls: 0 for no effect and ±100 for the full control effect; potency is read from the fitted curve at half-maximal effect; tags tell the direction and shape of the fitted curve.
# Chain of UniProt P02791 (P02791 whole entry, looked up): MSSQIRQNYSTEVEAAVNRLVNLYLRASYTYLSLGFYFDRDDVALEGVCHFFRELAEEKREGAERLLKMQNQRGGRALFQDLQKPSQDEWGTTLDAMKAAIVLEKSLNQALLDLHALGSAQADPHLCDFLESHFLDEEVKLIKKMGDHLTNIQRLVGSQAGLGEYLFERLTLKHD
SMILES,Potency,"activity change, negative = displacement"
C=CCSc1nc(C)c2cc(C)cc(C)c2n1,"inconclusive: 35.5 µM [inhibitor, partial curve]",–
O=C(Nc1ccc(OC(F)(F)F)cc1)C(Cc1ccccc1)NS(=O)(=O)c1cccc2nsnc12 (configuration not stated),"inconclusive: 12.6 µM [inhibitor, partial curve]",–
O=[N+]([O-])c1cccc(-c2csc(Nc3ccccc3)n2)c1,"inconclusive: 31.6 µM [inhibitor, partial curve]",–
COc1ccc(/C=C/N(CCc2ccc(OC)c(OC)c2)C(=O)C(F)(F)F)cc1,–,inactive: -23.4% [at 15.3 µM]
O=C(c1cnc2n(c1=O)CCS2)N1CCN(C(c2ccccc2)c2ccc(Cl)cc2)CC1 (configuration not stated),"inconclusive: 39.8 µM [inhibitor, partial curve]",–
CC12CCC(C(=O)N(CSC(=S)N/N=C\c3ccccc3)C1=O)C2(C)C (configuration not stated),"inconclusive: 14.1 µM [inhibitor, partial curve]",–
CCOC(=O)c1c(Nc2ccc(O)cc2)nnc(-c2ccccc2)c1-c1ccccc1,"inconclusive: 17.8 µM [inhibitor, partial curve]",–
O=C(c1ccccc1)N1CCc2ccccc21,"inconclusive: 39.8 µM [inhibitor, single point]",–
CC(C)N(C(=O)Cn1cc(S(=O)(=O)CC(=O)NCc2ccc(F)cc2)c2ccccc21)C(C)C,"inconclusive: 44.7 µM [inhibitor, single point]",–
COC(=O)Nc1nc2ccc(C(=O)c3ccc(F)cc3)cc2[nH]1,inactive,–
c1ccc(CSCc2cn3ccsc3n2)cc1,inactive,–
Cc1cc(C)cc(NC(=O)c2cccc(NC(=O)C3C4CC5OC(=O)C3C5C4)c2)c1 (configuration not stated),"inconclusive: 31.6 µM [inhibitor, partial curve]",–
Cc1cc(C2(c3ccc(O)c(C)c3)C(=O)Nc3ccccc32)ccc1O,"inconclusive: 8.91 µM [inhibitor, partial curve]",–
Nc1ccc(Oc2ccc3nc(-c4ccccc4)c(-c4ccc([N+](=O)[O-])cc4)nc3c2)cc1,"inconclusive: 17.8 µM [inhibitor, partial curve]",–
COC(=O)c1ccc(Sc2ccc(Cl)cc2)c(N)c1,"inconclusive: 12.6 µM [inhibitor, partial curve]",–
Clc1ccc(CSc2nnc(CN3CCOCC3)n2-c2ccccc2)cc1Cl,"inconclusive: 44.7 µM [inhibitor, single point]",–
CCCCN=C1CC(C)(C)CC(=O)/C1=C(/O)CCCN1C(=O)c2ccccc2C1=O,"inconclusive: 25.1 µM [inhibitor, partial curve]",–
Cc1ccc(S(=O)(=O)NNC(=O)c2sc3nc(C)cc(C)c3c2-n2cccc2)cc1,"inconclusive: 25.1 µM [inhibitor, partial curve]",–
O=C(NCC1CCCCC1)c1cccc(-c2ccc(O)cc2)c1,"inconclusive: 50.1 µM [inhibitor, single point]",–
NS(=O)(=O)c1cccc(NS(=O)(=O)c2ccc(/C=C/C(=O)OCC(=O)c3ccc(Br)cc3)cc2)c1,"inconclusive: 17.8 µM [inhibitor, partial curve]",–
Cc1cccc(-c2nc(CCNC(=O)c3ccc(Br)o3)cs2)c1,"inconclusive: 12.6 µM [inhibitor, partial curve]",–

SMILES,Potency,"activity change, negative = displacement"
COc1ccc(S(=O)(=O)Nc2ccc3c(c2)OCCO3)cc1Cl,"inconclusive: 28.2 µM [inhibitor, single point]",–
Cc1cc(OC(C)C(=O)N/N=C/CC(C)c2ccccc2)ccc1Cl (configuration not stated),"inconclusive: 31.6 µM [inhibitor, partial curve]",–
COc1ccccc1Oc1nc(-c2ccccc2)cc(C)c1S(C)(=O)=O,"inconclusive: 7.94 µM [inhibitor, full curve]",–
COc1ccc(CCCC(=O)N/N=C/c2ccc(C)cc2)cc1,"inconclusive: 25.1 µM [inhibitor, partial curve]",–
Cc1ccc2[nH]c(=O)c3cc(C(=O)N(C)c4ccc(C)c(C)c4)sc3c2c1,inactive,–
CC1CCN(c2nc(-c3ccncc3)nc3ccccc23)CC1,"inconclusive: 31.6 µM [inhibitor, partial curve]",–
COc1ccc(-c2nc3sc(CCNC(=O)Cc4ccc(F)cc4)c(C)n3n2)cc1,inactive,–
Nc1nc(C23CC4CCC(CC(C4)C2)C3)cs1,"inconclusive: 3.55 µM [inhibitor, full curve]",–
Cc1ccc(/C=C(\C#N)c2nc3ccccc3[nH]2)s1,"inconclusive: 17.8 µM [inhibitor, partial curve]",–
O=C(CSc1nnc(-c2ccccc2F)n1C1CC1)NC(=O)c1cccc([N+](=O)[O-])c1,"inconclusive: 39.8 µM [inhibitor, single point]",–
CCn1c(CSc2nc3ccccc3s2)n[nH]c1=S,"inconclusive: 22.4 µM [inhibitor, partial curve]",–
Cc1ccc2c(C)c(C(=O)N(C)C(C)c3ccncn3)oc2c1C (configuration not stated),inactive,–
COc1ccc(C(=O)OCC(=O)NC(=O)CCSc2ccccc2)cc1,"inconclusive: 22.4 µM [inhibitor, partial curve]",–
OCC[n+]1ccc(/C=C/c2c[nH]c3ccccc23)cc1,inactive,–
N/C(Cc1ccc([N+](=O)[O-])cc1)=N\OC(=O)C(c1ccccc1)c1ccccc1,"inconclusive: 28.2 µM [inhibitor, partial curve]",–
CC(=O)Nc1ccc(Br)c(Cl)c1,inactive,–
COc1ccc(NS(=O)(=O)c2cc(C)ccc2C)cc1,"inconclusive: 28.2 µM [inhibitor, partial curve]",–
CC1(C)CC(=O)C(C=NCCN2CCN(C(=O)NC34CC5CC(CC(C5)C3)C4)CC2)=C(O)C1,"inconclusive: 31.6 µM [inhibitor, single point]",–
CC1CCc2onc(C(=O)N3CCN(c4ccc(F)cc4)CC3)c2C1 (configuration not stated),inactive,–
CC(C)(C)/C(O)=C/c1nc2ccccc2[nH]c1=O,"inconclusive: 5.62 µM [inhibitor, full curve, poor fit]",–
CCCC(=O)Nc1ccc(S(=O)(=O)N2CCOCC2)cc1,inactive,–

# — PubChem BioAssay AID485281 (National Center for Advancing Translational Sciences (NCATS), 2010)
